PubChem BioAssay (Tox21)
Inconclusive results, whose numbers are uncertain, are shown with a selection of clear calls. No potency is given beside an inconclusive call; the fits are too rough. Activity calls are given as the source filed them. Calls come from the whole dose curve; as a rule, active = well fitted cell-killing curve with a large enough effect in the repeat runs; inconclusive = weak or mixed curves, or effect the other way; inactive = no such curve, though single readings can be large or run the other way.

assay: qHTS assay to identify small molecule antagonists of the progesterone receptor (PR) signaling pathway - cell viability counter screen (AID 1346798); settings: PR-UAS-bla HEK293T viability, CellTiter-Glo luminescence, 16 h; series mostly up to 92.4 µM; note: nearly all actives have a fitted effect of over 50% in size
How it was run: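 Cytotoxicity read as CellTiter-Glo luminescence (30 min, room temperature) in the same wells as the beta-lactamase readout. HEK293T PR-UAS-bla cells in charcoal-stripped 2% FBS received compound and R5020, then 16 h at 37C, 5% CO2.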
Potency is the fitted concentration of half-maximal effect; tags give direction and shape of the fitted curve.

SMILES	Potency
O=S(=O)(O)c1ccc2ccccc2c1	inconclusive [cytotoxic, full curve]
CC(C)(C)C(=O)Oc1ccc(S(=O)(=O)Nc2ccccc2C(=O)NCC(=O)O)cc1	inactive
CCNc1cccc(C)c1	inconclusive [rising, full curve, poor fit]
OC(C#CCN1CCCC1)(c1ccccc1)c1ccccc1	inactive
CSc1nnc(C(C)(C)C)c(=O)[nH]1	inconclusive [rising, single point]
CCS(=O)(=O)c1ccc(OC)c(C(=O)OC)c1	inactive
CCCC(=O)OC/C=C(\C)CCC=C(C)C	inactive
C[n+]1ccccc1/C=N/O	inconclusive [cytotoxic, single point]
CC1CCN(CCCC(=O)c2ccc(F)cc2)CC1	inactive
CC(CCO)CCc1ccccc1 (stereo unspecified)	inactive
CCCCC[Si](OCC)(OCC)OCC	inconclusive [rising, partial curve, poor fit]
